# Data: PubChem BioAssay AID624296 (National Center for Advancing Translational Sciences (NCATS), 2012)
# The whole screen tested about 350,000 compounds, of which about 9,900 (2.8%) were called active. Inconclusive means that the source gave no clear call. Such entries were picked first, then a sample of the others. The call rests on the fitted dose curve; in most records, active means well fitted activation curve with a large enough effect; inconclusive means small, poorly fitted or top-dose-only effect; inactive means no such curve, though single readings can be large or run the other way. No potency is given beside an inconclusive call; the fits are too rough.
# Experiment: A quantitative high throughput screen for small molecules that induce DNA re-replication in MCF 10a normal breast cells. Further: nearly all actives have a fitted effect of over 50% in size. On activity, positive = re-replication: % of control where 0% means no effect.
# Conditions: MCF 10A DNA re-replication, Hoechst nuclear intensity, 48 h; activity, positive = re-replication: at 46.1 µM (top of the series)
# Potency means the concentration at half of the fitted maximal effect; tags describe the fitted curve by direction and shape.
Compound,Potency,"activity, positive = re-replication"
COc1ccc(-c2cc(C(F)(F)F)n3nc(C(=O)NCc4ccco4)cc3n2)cc1OC,"inconclusive [activator, partial curve, poor fit]",
N#C/C(=C\c1c(F)cccc1Cl)c1nn(-c2ccccc2)c(-n2cccc2)c1C#N,"inconclusive [activator, single point]",
Cc1ccc(S(=O)(=O)N/N=C/c2cn(C)nc2C)cc1,,inactive: -1.1%
CCOC(=O)c1cc(-c2ccccc2)n(CCC(=O)N2CCN(c3ccc(OC)cc3)CC2)c1C,active: 25.9 µM,
CCCCN(C(=O)c1cc(S(=O)(=O)N2CCCCC2)ccc1Cl)c1c(N)n(CCC)c(=O)[nH]c1=O,,inactive: -8.31%
CC(C)CC(=O)NC(=S)Nc1nc(-c2cccc3ccccc23)cs1,"inconclusive [activator, single point]",
CCC(C)n1ncn(-c2ccc(N3CCN(c4ccc(O)cc4)CC3)cc2)c1=O (stereo not drawn),"inconclusive [activator, full curve]",
Cc1ccc(C)c(S(=O)(=O)N2CCCCC2CCNC(=O)C(=O)NCc2ccco2)c1 (stereo not drawn),"inconclusive [activator, single point]",
Cc1[nH]c(-c2ccc(F)cc2)cc1C(=O)N1CCN(c2ccccc2)CC1,"inconclusive [activator, single point]",
COc1ccc(CCNC(=O)COC(=O)c2ccc(N3CCCC3=O)cc2)cc1OC,"inconclusive [activator, partial curve, poor fit]",
Cc1ccccc1NC(=O)/C(C#N)=C/c1ccsc1,"inconclusive [activator, single point]",
COc1ccc(/C=C2\C(=O)c3ccccc3OC2c2ccccc2)cc1 (stereo not drawn),active: 10.3 µM,
Cc1nnc(N/N=C/c2c(Cl)cccc2Cl)n1N,"inconclusive [activator, single point]",
CSc1ccc(CNC(=O)CCn2ccc3cc(S(=O)(=O)N4CCCC4)ccc32)cc1,,inactive: 0.16%
Cc1nn(C)c(C)c1S(=O)(=O)NCCc1ccc(Cl)cc1,,inactive: -13.8%
O=C(O)c1ccc(N2C(=O)CC(N3CCC(c4nc5ccccc5[nH]4)CC3)C2=O)cc1 (stereo not drawn),"inconclusive [activator, partial curve, poor fit]",
Cc1occc1-c1nnc(SCC(=O)c2cc3ccccc3oc2=O)o1,"inconclusive [activator, single point]",
CS(=O)(=O)N(CC(=O)N1CCOCC1)c1cccc(F)c1,"inconclusive [activator, partial curve, poor fit]",
COc1cccc(NC(=O)c2cccc(C(=O)Nc3cccc(OC)c3)c2)c1,"inconclusive [activator, single point]",
Cc1cc(C)c(NC(=O)CN(CC(=O)O)CC(=O)O)c(C)c1Br,,inactive: 2.68%
Cc1ccc(S(=O)(=O)N/N=C(\c2ccccc2)c2cccnc2)cc1,"inconclusive [activator, single point]",
COc1ccc(CN(C)C(=O)c2cc(-c3ccc(C)cc3C)nc3ccccc23)c(OC)c1OC,active: 23.1 µM,

Compound,Potency,"activity, positive = re-replication"
O=C(c1ccccc1)c1ccc(OCC(=O)N2CCOCC2)cc1,"inconclusive [activator, single point]",
CC(=O)Nc1cc2c3c(cccc3c1)-c1ccccc1-2,active: 2.31 µM,
c1ccc(-c2cc3c(N4CCN(c5ncccn5)CC4)ncnc3s2)cc1,"inconclusive [activator, single point]",
Cc1ccc(N2C(=O)c3cccc4c([N+](=O)[O-])ccc(c34)C2=O)c2cccnc12,active: 2.59 µM,
CC(C)Oc1ccc(C2c3c(oc4ccccc4c3=O)C(=O)N2CCCN2CCOCC2)cc1 (stereo not drawn),"inconclusive [activator, single point]",
CC(C)C(OC(=O)c1ccco1)C(=O)NC1CCCC1 (stereo not drawn),,inactive: -22.8%
CCCCCn1c(N2CCC(Cc3ccccc3)CC2)nc2c1c(=O)[nH]c(=O)n2C,"inconclusive [activator, single point]",
COc1ccnc2c1c(=O)n(Cc1cccc(F)c1)c(=O)n2C,"inconclusive [activator, partial curve, poor fit]",
Cn1cc(CCC(=O)NC2CC(C)(C)Cc3c2cnn3-c2ccc(F)cc2)cn1 (stereo not drawn),"inconclusive [activator, partial curve]",
COc1ccccc1N1C(=O)CC(Nc2ccc(N3CCOCC3)cc2)C1=O (stereo not drawn),,inactive: 1.11%
CC(=O)N/N=C(\C)CC(=O)Nc1ccc2c(c1)OCCO2,"inconclusive [activator, single point]",
CCOC(=O)C(=CNc1ccc2c(c1)c1ccccc1n2CC)C(=O)OCC,"inconclusive [activator, single point]",
CC(C)Oc1ccc(C(=O)Nc2ccccc2N2CCCC2)cc1,"inconclusive [activator, partial curve, poor fit]",
Cc1ccc(-c2csc(C3=C(O)CN(NC(=O)c4ccc([N+](=O)[O-])cc4)C3=N)n2)cc1,"inconclusive [activator, single point]",
CO/N=C(/C(=O)N[C@@H]1C(=O)N2C(C(=O)O)=CCS[C@H]12)c1csc(N)n1,,inactive: 1.36%
C/C(=N/NS(=O)(=O)c1ccc(Cl)cc1)c1ccncc1,,inactive: -22.5%
Cc1cnc(C(=O)NC2CC(C)(C)Cc3c2cnn3-c2ccccc2)cn1 (stereo not drawn),"inconclusive [activator, full curve, poor fit]",
Cn1c(Cc2ccccc2)nnc1SCc1nc2ccccc2c(=O)[nH]1,,inactive: 5.47%
Cc1cc(C)n2nc(C(=O)Nc3ccn(Cc4ccccc4C)n3)cc2n1,,inactive: 1.15%
O=C(Nc1cc(-c2ccccc2)cs1)c1ccco1,"inconclusive [activator, full curve]",
CN1CCN(C2=C(Cl)C(=O)N(C3CCCCC3)C2=O)CC1,"inconclusive [activator, partial curve, poor fit]",
